From paper PMC9639148 (Journal for Immunotherapy of Cancer, 2022)

Molecular target: APOBEC3B in KYSE150-APOBEC3B cells (Homo sapiens, UniProt Q9UH17)
Test: Fluorescence-based ssDNA deaminase analysis within KYSE150-APOBEC3B cells

UniProt Q9UH17, sequence (Q9UH17 whole entry): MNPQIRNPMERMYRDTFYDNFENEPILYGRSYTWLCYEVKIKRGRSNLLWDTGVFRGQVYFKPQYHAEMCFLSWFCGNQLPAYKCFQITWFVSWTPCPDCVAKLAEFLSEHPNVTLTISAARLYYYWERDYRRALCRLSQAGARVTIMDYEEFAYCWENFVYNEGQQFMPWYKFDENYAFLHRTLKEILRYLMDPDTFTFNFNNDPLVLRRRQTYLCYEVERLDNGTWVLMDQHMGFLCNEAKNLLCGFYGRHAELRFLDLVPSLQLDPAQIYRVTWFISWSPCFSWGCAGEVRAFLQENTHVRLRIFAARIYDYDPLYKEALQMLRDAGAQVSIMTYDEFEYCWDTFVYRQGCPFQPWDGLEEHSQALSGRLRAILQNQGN

## N[C@@H](Cc1cc(I)c(O)c(I)c1)C(=O)O [SMC247, 3,5-diiodotyrosine]
  deaminase activity of APOBEC3B in KYSE150-APOBEC3B cells: strongly inhibit
